From PMC4336329 (PLoS ONE, 2015) come the findings set out here.

Hit rate of the full screen: of about 310,000 compounds, about 14,000 (4.5%) showed an effect of 50% or more. Effects have a minus sign here. This is one part of the list.
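Note: peak tail current of the secondary pulse compared with the same well before compound.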

The target of the assay is human ether-à-go-go-related gene (hERG) potassium channel (human, UniProt Q12809). Briefly: primary screen, population patch clamp on CHO cells stably expressing hERG.
Chain of human ether-à-go-go-related gene (hERG) potassium channel (Q12809 whole entry, looked up): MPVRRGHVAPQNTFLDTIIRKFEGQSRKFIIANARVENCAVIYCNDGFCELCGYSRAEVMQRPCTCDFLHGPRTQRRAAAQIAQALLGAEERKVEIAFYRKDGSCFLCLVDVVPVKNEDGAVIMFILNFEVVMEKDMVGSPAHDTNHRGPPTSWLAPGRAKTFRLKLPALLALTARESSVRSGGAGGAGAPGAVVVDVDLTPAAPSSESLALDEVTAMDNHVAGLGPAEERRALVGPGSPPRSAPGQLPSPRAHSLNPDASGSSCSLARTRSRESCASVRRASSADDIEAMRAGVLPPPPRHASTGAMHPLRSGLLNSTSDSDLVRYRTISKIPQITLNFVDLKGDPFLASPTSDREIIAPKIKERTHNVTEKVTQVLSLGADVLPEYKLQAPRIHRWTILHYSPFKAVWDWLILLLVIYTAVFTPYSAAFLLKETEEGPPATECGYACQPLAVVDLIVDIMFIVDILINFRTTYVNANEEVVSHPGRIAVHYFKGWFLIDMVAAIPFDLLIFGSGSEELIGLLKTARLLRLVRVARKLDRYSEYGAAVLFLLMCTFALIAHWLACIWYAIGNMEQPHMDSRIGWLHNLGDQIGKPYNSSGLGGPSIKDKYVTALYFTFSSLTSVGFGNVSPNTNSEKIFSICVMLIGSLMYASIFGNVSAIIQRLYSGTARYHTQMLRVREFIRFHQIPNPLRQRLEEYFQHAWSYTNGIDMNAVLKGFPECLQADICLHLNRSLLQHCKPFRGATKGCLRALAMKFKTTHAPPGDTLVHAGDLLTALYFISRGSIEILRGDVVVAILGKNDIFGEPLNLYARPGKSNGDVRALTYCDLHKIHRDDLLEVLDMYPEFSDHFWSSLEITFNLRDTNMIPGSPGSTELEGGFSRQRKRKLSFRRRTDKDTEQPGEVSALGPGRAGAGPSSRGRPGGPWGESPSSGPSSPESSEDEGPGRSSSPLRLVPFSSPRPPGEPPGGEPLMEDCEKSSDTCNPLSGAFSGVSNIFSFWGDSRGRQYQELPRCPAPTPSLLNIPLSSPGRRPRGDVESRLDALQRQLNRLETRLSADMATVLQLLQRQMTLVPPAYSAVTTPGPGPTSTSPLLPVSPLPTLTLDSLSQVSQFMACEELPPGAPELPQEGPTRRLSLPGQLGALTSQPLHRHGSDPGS
As to `CCOc1ncccc1C(=O)OCC(=O)Nc1cccc(C(C)=O)c1`, the “hERG current change (%, negative = inhibition) at 10uM” value is given as -11.3%.
With `CC1(c2ccc(Cl)cc2)NC(=S)N2C1NC(=S)N2c1ccccc1` (stereo not shown), the “hERG current change (%, negative = inhibition) at 10uM” value is -10.5%.
As for `Cc1ccc(C)c(N(C(=O)CNC(=O)c2ccco2)C(C(=O)NC2CCCC2)c2ccncc2)c1` (stereo not shown), the “hERG current change (%, negative = inhibition) at 10uM” value came out at 8.74%.
For `Cc1ccccc1OC(C)C(=O)NC1CCCC1` (stereo not shown), the “hERG current change (%, negative = inhibition) at 10uM” value is -2.63%.
For `CCOC(=O)N1CCN(S(=O)(=O)c2ccc(C(=O)Nc3sc4c(c3C#N)CC(C)(C)NC4(C)C)cc2)CC1`, the “hERG current change (%, negative = inhibition) at 10uM” value was 14.6%.
As for `COc1ccccc1CC(=O)Nc1ccc2[nH]ncc2c1`, the figure is 1.58%; as for `NC(=O)c1cccc(CC(=O)c2ccccc2)c1`, 7.23%; as for `NC(=O)CSc1nnc(CSc2ncccn2)n1-c1ccccc1`, 11.3%.
Take `CN(CCC#N)C(=O)CSc1nc2scc(-c3ccccc3)c2c(=O)[nH]1`: the “hERG current change (%, negative = inhibition) at 10uM” value is reported as -12.6%.
On to `Cc1cc(NC(=O)c2c(C)noc2C)no1`, for which the “hERG current change (%, negative = inhibition) at 10uM” value amounted to 15.6%.
Turning to `CSc1cccc(NC(=O)c2cc(S(=O)(=O)N3CCCC3)cn2C)c1`, the “hERG current change (%, negative = inhibition) at 10uM” value was -4.42%.
Consider `COC(=O)C1=C(C)N(Cc2ccco2)C(=O)N[C@@H]1c1ccccc1`, for which the “hERG current change (%, negative = inhibition) at 10uM” value is -4.74%.
For the compound `O=C(CN1C(=O)CSc2ccc(S(=O)(=O)N3CCOCC3)cc21)NCc1ccc(Cl)cc1`, the “hERG current change (%, negative = inhibition) at 10uM” value is -48.6%.
On to `COc1cccc(C(=O)NC(=S)Nc2ccccc2N2CCCCC2)c1`, for which the “hERG current change (%, negative = inhibition) at 10uM” value stood at 22.6%.
`COC(=O)c1c(NC(C)=O)sc(C(=O)N2CCOCC2)c1C`: the “hERG current change (%, negative = inhibition) at 10uM” value was found to be 16.9%.
In the case of `CCOC(=O)CC(=O)CSc1nc(N)c(C#N)c(-c2ccc(Cl)cc2)c1C#N`, the “hERG current change (%, negative = inhibition) at 10uM” value came out at 3.56%.
`Cn1c(=O)c2c(SCC(=O)NCc3ccco3)nc(CC(C)(C)C)nc2n(C)c1=O`: the “hERG current change (%, negative = inhibition) at 10uM” value is recorded as -57.4%.
As to `COc1ccc(CCNC(=S)Nc2cccc3ccccc23)cc1`, the “hERG current change (%, negative = inhibition) at 10uM” value is on record as -4.42%.
As to `O=C(O)c1[nH]c2ccccc2c1C(c1cc(Br)ccc1O)c1c(C(=O)O)[nH]c2ccccc12`, the “hERG current change (%, negative = inhibition) at 10uM” value was determined as 19.8%.
With `CSc1ncnc2sc(C)c(C)c12`, the “hERG current change (%, negative = inhibition) at 10uM” value worked out at 5.21%.
The result for `O=C(CSc1nncn1-c1ccccc1)Nc1c(F)cccc1F` reads 3.19%.
The result for `O=C(CC(=O)N/N=C\c1cccc(Cl)c1Cl)NCc1ccccc1` reads 12.8%.
As to `O=C(O)CC(C(=O)Nc1cccc(C(F)(F)F)c1)C1CCCO1` (stereo not shown), the “hERG current change (%, negative = inhibition) at 10uM” value is listed as -10.2%.
Consider `S=C(NCCCCc1ccccc1)NCc1ccccc1`, for which the “hERG current change (%, negative = inhibition) at 10uM” value amounted to 11.7%.
As to `Cc1ccc(NC(=O)CCNS(=O)(=O)c2cc(Br)cnc2N)c(Cl)c1`, the “hERG current change (%, negative = inhibition) at 10uM” value is on record as -16.1%.
As for `O=c1[nH]c(N/N=C\c2ccc(F)cc2)nc2ccccc12`, the figure is -6.47%; as for `Cc1ccc(C)c(S(=O)(=O)Nc2ccc(C(=O)NCC(c3ccco3)N(C)C)cc2)c1` (stereo not shown), -22.3%.
Consider `Cc1ccc(-n2c(=O)c3sccc3n(CC(=O)NCc3ccco3)c2=O)cc1F`, for which the “hERG current change (%, negative = inhibition) at 10uM” value was found to be 10.9%.
On to `Cc1cc(Cl)ccc1OCCCC(=O)N1CCCc2ccccc21`, for which the “hERG current change (%, negative = inhibition) at 10uM” value is recorded as 2.77%.
Regarding `Cc1ccc(CSc2nnc(CNc3ccc(F)cc3)o2)cc1`, the “hERG current change (%, negative = inhibition) at 10uM” value was determined as 7.56%.
As to `Cc1cc(NC(=O)CS(=O)(=O)c2cn(C)c3ccccc23)no1`, the “hERG current change (%, negative = inhibition) at 10uM” value was determined as 21.6%.
As to `Cc1ccc(CC23CN4CCN(CC(C4)C2O)C3)c(C)c1` (stereo not shown), the “hERG current change (%, negative = inhibition) at 10uM” value is 8.56%.
For the compound `O=C(Nc1cccc(S(=O)(=O)N2CCOCC2)c1)C1=NN(c2ccccc2)C(=O)CC1`, the “hERG current change (%, negative = inhibition) at 10uM” value is reported as -42.9%.
The result for `Cc1ccc(C2c3c(oc4cc(C)c(C)cc4c3=O)C(=O)N2CCCN2CCOCC2)cc1` (stereo not shown) reads -37.5%; that for `CCOC(=O)C1CCCN(S(=O)(=O)c2cccc3nsnc23)C1` (stereo not shown), 14%.
In the case of `Cc1onc(-c2ccccc2Cl)c1-c1nc(-c2ccccn2)no1`, the “hERG current change (%, negative = inhibition) at 10uM” value is on record as -17.2%.
The result for `CCOc1ccc(C2C(C#N)=C(N)Oc3c2c(=O)oc2ccccc32)cc1` (stereo not shown) reads -12%.
`Cc1ccsc1S(=O)(=O)N1CCCC(CCC(=O)NCc2ccccc2F)C1` (stereo not shown): the “hERG current change (%, negative = inhibition) at 10uM” value is 5.38%.
As for `CN(C)S(=O)(=O)Oc1ccsc1C(=O)Nc1ccc(Br)cc1`, the “hERG current change (%, negative = inhibition) at 10uM” value is on record as -12.2%.
Regarding `Cc1ccc(-n2nc(CN3CCOCC3)c(-c3ccccc3)c2N)cc1Cl`, the “hERG current change (%, negative = inhibition) at 10uM” value was -4.56%.
For the compound `CCN(Cc1ccc(NC(C)=O)cc1)CC1CCCN(CCc2cccc(F)c2)C1` (stereo not shown), the “hERG current change (%, negative = inhibition) at 10uM” value was -24.4%.
Turning to `Cc1ccccc1NC(=O)COC(=O)c1cccc(S(=O)(=O)N2CCCCC2)c1`, the “hERG current change (%, negative = inhibition) at 10uM” value is on record as -6.55%.
As for `Clc1ccc(CO/N=C/c2c(-c3ccccc3)nc3n2CCS3)c(Cl)c1`, the “hERG current change (%, negative = inhibition) at 10uM” value stood at 12.7%.
In the case of `Cc1nc(C)c(-c2csc(Nc3cccnc3)n2)s1`, the “hERG current change (%, negative = inhibition) at 10uM” value was -1.69%.
As to `CC(=O)c1cn(-c2ccc([N+](=O)[O-])cc2)c(=O)n(C)c1=O`, the “hERG current change (%, negative = inhibition) at 10uM” value was -18.3%.
For `Cc1ccsc1/C=N/NC(=O)CNC(=O)c1ccc(S(=O)(=O)N2CCOCC2)cc1`, the “hERG current change (%, negative = inhibition) at 10uM” value amounted to 2.86%.
Consider `O=S(=O)(c1ccc(Br)cc1)N1CCCC1c1nc2ccccc2s1` (stereo not shown), for which the “hERG current change (%, negative = inhibition) at 10uM” value is -17%.
Consider `CCOC(=O)[C@H]1[C@H]2COc3ccc(OC)cc3[C@@H]2N2C(=O)CN(Cc3ccco3)C(=O)[C@@]12C`, for which the “hERG current change (%, negative = inhibition) at 10uM” value was determined as 0.741%.
In the case of `Cn1ccnc1C(=O)c1cc(SCC(=O)N2CCOCC2)nc2ccccc12`, the “hERG current change (%, negative = inhibition) at 10uM” value amounted to 9.21%.
For `O=C1C=C(c2ccc(Cl)c(C(F)(F)F)c2)C[C@@H](c2ccc(Cl)cc2)C1`, the “hERG current change (%, negative = inhibition) at 10uM” value stood at 15.4%.
`CSc1ncc(C(=O)Nc2ccccc2F)c(-c2ccccc2)n1`: the “hERG current change (%, negative = inhibition) at 10uM” value was 13.1%.
With `Cc1ccccc1CS(=O)(=O)Cc1ccc(C(=O)NCC2CCCO2)o1` (stereo not shown), the “hERG current change (%, negative = inhibition) at 10uM” value stood at 14.3%.
`Cc1ccc(C(=O)NC2CCCCCCC2)c(Cl)c1`: the “hERG current change (%, negative = inhibition) at 10uM” value was -0.762%.
Turning to `Cc1cc(CNC(=O)C2(C(F)(F)F)C/C(=C\Cc3ccccc3)CCCO2)nn1C` (stereo not shown), the “hERG current change (%, negative = inhibition) at 10uM” value was 9.35%.
For the compound `N#C/C(=C(/O)COC(=O)CCC1CCCCC1)c1nc2ccccc2[nH]1`, the “hERG current change (%, negative = inhibition) at 10uM” value was 6.03%.
